Drawing on patent US7772236B2, “Substituted pyrazoles” (Ortho McNeil Pharmaceutical, Inc., priority 2000, dated 2010), this text covers IC50 for 28 compounds.

The test has as its target Recombinant human cathepsin S (CatS) (Homo sapiens, UniProt P25774). The test is described as follows: biochemical.

Regarding `CC(=O)N1CCc2c(c(-c3ccc(I)cc3)nn2CC(O)CN2CCN(c3ccccc3C#N)CC2)C1` (stereo not shown) [Example 38, 2-(4-{3-[5-Acetyl-3-(4-iodo-phenyl)-4,5,6,7-tetrahydro-pyrazolo[4,3-c]pyridin-1-yl]-2-hydroxy-propyl}-piperazin-1-yl)-benzonitrile], the IC50 (as a rule, the point on the concentration scale where inhibition reaches its midpoint) was determined as 120 nM.

On to `COc1ccccc1N1CCN(CC(O)Cn2nc(-c3ccc(Cl)cc3)c3c2CCN(C(C)=O)C3)CC1` (stereo not shown) [Example 103, 1-(3-(4-Chloro-phenyl)-1-{2-hydroxy-3-[4-(2-methoxy-phenyl)-piperazin-1-yl]-propyl}-1,4,6,7-tetrahydro-pyrazolo[4,3-c]pyridin-5-yl)-ethanone], for which the IC50 is 2100 nM.

In the case of `COc1cccc(N2CCN(CC(O)Cn3nc(-c4ccc(Cl)cc4)c4c3CCN(C(C)=O)C4)CC2)c1` (stereo not shown) [Example 109, 1-(3-(4-Chloro-phenyl)-1-{2-hydroxy-3-[4-(3-methoxy-phenyl)-piperazin-1-yl]-propyl}-1,4,6,7-tetrahydro-pyrazolo[4,3-c]pyridin-5-yl)-ethanone], the concentration for half-maximal inhibition (IC50) was determined as 1200 nM.

For the compound `CC(=O)N1CCc2c(c(-c3ccc(Cl)cc3)nn2CC(O)CN2CCN(C3c4ccccc4-c4ccccc43)CC2)C1` (stereo not shown) [Example 114, 1-(3-(4-Chloro-phenyl)-1-{3-[4-(9H-fluoren-9-yl)-piperazin-1-yl]-2-hydroxy-propyl}-1,4,6,7-tetrahydro-pyrazolo[4,3-c]pyridin-5-yl)-etha none], the IC50 stood at 1100 nM.

For the compound `COc1ccccc1N1CCN(C(=O)CCCn2nc(-c3ccc(Cl)cc3)c3c2CCN(C(C)=O)C3)CC1` [Example 120, 4-[5-Acetyl-3-(4-chloro-phenyl)-4,5,6,7-tetrahydro-pyrazolo[4,3-c]pyridin-1-yl]-1-[4-(2-methoxy-phenyl)-piperazin-1-yl]-butan-1-one], the IC50 amounted to 12000 nM.

Consider `COc1ccccc1N1CCN(CC(O)Cn2nc(-c3ccc(C)cc3)c3c2CCN(C(C)=O)C3)CC1` (stereo not shown) [Example 121, 1-(1-{2-Hydroxy-3-[4-(2-methoxy-phenyl)-piperazin-1-yl]-propyl}-3-p-tolyl-1,4,6,7-tetrahydro-pyrazolo[4,3-c]pyridin-5-yl)-ethanone], for which the concentration for half-maximal inhibition (IC50) came to 4300 nM.

Regarding `CC(=O)N1CCc2c(c(-c3ccc(Cl)cc3)nn2CC(O)CN2CCN(c3ccccn3)CC2)C1` (stereo not shown) [Example 123, 1-{3-(4-Chloro-phenyl)-1-[2-hydroxy-3-(4-pyridin-2-yl-piperazin-1-yl)-propyl]-1,4,6,7-tetrahydro-pyrazolo[4,3-c]pyridin-5-yl}-ethanone], the concentration for half-maximal inhibition (IC50) stood at 1900 nM.

On to `COc1ccc(-c2nn(CC(O)CN3CCN(c4ccccc4OC)CC3)c3c2CN(C(C)=O)CC3)cc1` (stereo not shown) [Example 126, 1-[1-{2-Hydroxy-3-[4-(2-methoxy-phenyl)-piperazin-1-yl]-propyl}-3-(4-methoxy-phenyl)-1,4,6,7-tetrahydro-pyrazolo[4,3-c]pyridin-5-yl]-ethanone], for which the IC50 came out at 7400 nM.

In the case of `COc1ccccc1N1CCN(CC(O)Cn2nc(-c3ccc4ccccc4c3)c3c2CCN(C(C)=O)C3)CC1` (stereo not shown) [Example 131, 1-(1-{2-Hydroxy-3-[4-(2-methoxy-phenyl)-piperazin-1-yl]-propyl}-3-naphthalen-2-yl-1,4,6,7-tetrahydro-pyrazolo[4,3-c]pyridin-5-yl)-ethanone], the IC50 was 2200 nM.

`COc1ccccc1N1CCN(CC(O)Cn2nc(-c3ccc(Cl)cc3)c3c2CCN(C(N)=O)C3)CC1` (stereo not shown) [Example 137, 3-(4-Chloro-phenyl)-1-{2-hydroxy-3-[4-(2-methoxy-phenyl)-piperazin-1-yl]-propyl}-1,4,6,7-tetrahydro-pyrazolo[4,3-c]pyridine-5-carboxylic acid amide]: the IC50 was 980 nM.

Consider `COc1ccccc1N1CCN(CC(O)Cn2nc(-c3ccc(Cl)c(Cl)c3)c3c2CCN(C(C)=O)C3)CC1` (stereo not shown) [Example 139, 1-(3-(3,4-Dichloro-phenyl)-1-{2-hydroxy-3-[4-(2-methoxy-phenyl)-piperazin-1-yl]-propyl}-1,4,6,7-tetrahydro-pyrazolo[4,3-c]pyridin-5-yl)-ethanone], for which the half-inhibitory concentration (IC50) stood at 710 nM.

As for `COc1ccccc1N1CCN(CC(O)Cn2nc(-c3ccc(C(F)(F)F)cc3)c3c2CCN(C(C)=O)C3)CC1` (stereo not shown) [Example 140, 1-[1-{2-Hydroxy-3-[4-(2-methoxy-phenyl)-piperazin-1-yl]-propyl}-3-(4-trifluoromethyl-phenyl)-1,4,6,7-tetrahydro-pyrazolo[4,3-c]pyridin-5-yl]-ethanone], the IC50 is 530 nM.

In the case of `COc1ccccc1N1CCN(CC(O)Cn2nc(-c3ccc([N+](=O)[O-])cc3)c3c2CCN(C(C)=O)C3)CC1` (stereo not shown) [Example 141, 1-[1-{2-Hydroxy-3-[4-(2-methoxy-phenyl)-piperazin-1-yl]-propyl}-3-(4-nitro-phenyl)-1,4,6,7-tetrahydro-pyrazolo[4,3-c]pyridin-5-yl]-ethanone], the IC50 was determined as 1400 nM.

For the compound `CC(=O)N1CCc2c(c(-c3ccc(Cl)cc3)nn2CC(O)CN2CCN(c3ccccc3C#N)CC2)C1` (stereo not shown) [Example 143, 2-(4-{3-[5-Acetyl-3-(4-chloro-phenyl)-4,5,6,7-tetrahydro-pyrazolo[4,3-c]pyridin-1-yl]-2-hydroxy-propyl}-piperazin-1-yl)-benzonitrile], the IC50 is 350 nM.

`CC(=O)N1CCc2c(c(-c3ccc(Cl)cc3)nn2CC(O)CN2CCN(c3ccc(C)cc3)C(C)C2)C1` (stereo not shown) [Example 148, 1-{3-(4-Chloro-phenyl)-1-[2-hydroxy-3-(3-methyl-4-p-tolyl-piperazin-1-yl)-propyl]-1,4,6,7-tetrahydro-pyrazolo[4,3-c]pyridin-5-yl}-ethanone]: the IC50 was determined as 630 nM.

As for `CC(=O)N1CCc2c(c(-c3ccc(Cl)cc3)nn2CC(O)CN2CCN(c3cccc(C)c3)C(C)C2)C1` (stereo not shown) [Example 149, 1-{3-(4-Chloro-phenyl)-1-[2-hydroxy-3-(3-methyl-4-m-tolyl-piperazin-1-yl)-propyl]-1,4,6,7-tetrahydro-pyrazolo[4,3-c]pyridin-5-yl}-ethanone], the half-inhibitory concentration (IC50) was found to be 860 nM.

Take `CC(=O)N1CCc2c(c(-c3ccc(Cl)cc3)nn2CC(O)CN2CCN(c3cc(C(F)(F)F)ccn3)CC2)C1` (stereo not shown) [Example 150, 1-(3-(4-Chloro-phenyl)-1-{2-hydroxy-3-[4-(4-trifluoromethyl-pyridin-2-yl)-piperazin-1-yl]-propyl}-1,4,6,7-tetrahydro-pyrazolo[4,3-c]pyridin-5-yl)-ethanone]: the IC50 came out at 1800 nM.

For `CC(=O)N1CCc2c(c(-c3ccc(Cl)cc3)nn2CC(O)CN2CCN(c3ncccn3)CC2)C1` (stereo not shown) [Example 156, 1-{3-(4-Chloro-phenyl)-1-[2-hydroxy-3-(4-pyrimidin-2-yl-piperazin-1-yl)-propyl]-1,4,6,7-tetrahydro-pyrazolo[4,3-c]pyridin-5-yl}-ethanone], the IC50 is 2900 nM.

For `N#Cc1ccccc1N1CCN(CC(O)Cn2nc(-c3ccc(Cl)cc3)c3c2CCC3)CC1` (stereo not shown) [Example 159, 2-(4-{3-[3-(4-Chloro-phenyl)-5,6-dihydro-4H-cyclopentapyrazol-1-yl]-2-hydroxy-propyl}-piperazin-1-yl)-benzonitrile], the IC50 is 6200 nM.

As for `CC(=O)OC(CN1CCN(c2ccccc2C)CC1)Cn1nc(-c2ccc(Cl)cc2)c2c1CCN(C(C)=O)C2` (stereo not shown) [Example 164, Acetic acid 1-[5-acetyl-3-(4-chloro-phenyl)-4,5,6,7-tetrahydro-pyrazolo[4,3-c]pyridin-1-ylmethyl]-2-(4-o-tolyl-piperazin-1-yl)-ethyl ester], the IC50 was 1900 nM.

On to `CC(=O)N1CCc2c(c(-c3ccc(Cl)cc3)nn2CC(CN2CCN(c3ccccc3C)CC2)OC(=O)NC(=O)c2ccccc2)C1` (stereo not shown) [Example 167, Benzoyl-carbamic acid 1-[5-acetyl-3-(4-chloro-phenyl)-4,5,6,7-tetrahydro-pyrazolo[4,3-c]pyridin-1-ylmethyl]-2-(4-o-tolyl-piperazin-1-yl)-ethyl ester], for which the IC50 is 4900 nM.

Take `CC(=O)N1CCc2c(c(-c3cccc(Cl)c3)nn2CC(O)CN2CCN(c3ccccc3C#N)CC2)C1` (stereo not shown) [Example 170, 2-(4-{3-[5-Acetyl-3-(3-chloro-phenyl)-4,5,6,7-tetrahydro-pyrazolo[4,3-c]pyridin-1-yl]-2-hydroxy-propyl}-piperazin-1-yl)-benzonitrile]: the half-inhibitory concentration (IC50) is 4500 nM.

Take `CC(=O)N1CCc2c(c(-c3ccc(Cl)cc3)nn2CC=CCN2CCN(c3ccccc3C#N)CC2)C1` [Example 174, 2-(4-{4-[5-Acetyl-3-(4-chloro-phenyl)-4,5,6,7-tetrahydro-pyrazolo[4,3-c]pyridin-1-yl]-but-2-enyl}-piperazin-1-yl)-benzonitrile]: the IC50 came to 1400 nM.

In the case of `COc1ccccc1N1CCN(CCCn2nc(-c3ccc(Cl)cc3)c3c2CCN(C(C)=O)C3)CC1` [Example 176, 1-(3-(4-Chloro-phenyl)-1-{3-[4-(2-methoxy-phenyl)-piperazin-1-yl]-propyl}-1,4,6,7-tetrahydro-pyrazolo[4,3-c]pyridin-5-yl)-ethanone], the half-inhibitory concentration (IC50) came to 1600 nM.

Turning to `CC(=O)N1CCc2c(c(-c3ccc(Cl)cc3)nn2CC(CN2CCN(c3ccccc3C)CC2)OCC#N)C1` (stereo not shown) [Example 181, [1-[5-Acetyl-3-(4-chloro-phenyl)-4,5,6,7-tetrahydro-pyrazolo[4,3-c]pyridin-1-ylmethyl]-2-(4-o-tolyl-piperazin-1-yl)-ethoxy]-acetonitrile], the half-inhibitory concentration (IC50) is 1700 nM.

Regarding `Oc1ccccc1N1CCN(CC(O)Cn2nc(-c3ccc(Cl)cc3)c3c2CCCC3)CC1` (stereo not shown) [Example 185, 2-(4-{3-[3-(4-Chloro-phenyl)-4,5,6,7-tetrahydro-indazol-1-yl]-2-hydroxy-propyl}-piperazin-1-yl)-phenol], the IC50 worked out at 8400 nM.

On to `Cc1ccccc1N1CCN(CC(O)Cn2nc(-c3ccc(Cl)cc3)c3c2CCN(C(N)=O)C3)CC1` (stereo not shown) [Example 190, 3-(4-Chloro-phenyl)-1-[2-hydroxy-3-(4-o-tolyl-piperazin-1-yl)-propyl]-1,4,6,7-tetrahydro-pyrazolo[4,3-c]pyridine-5-carboxylic acid amide], for which the IC50 was determined as 260 nM.

`Cc1ccccc1N1CCN(CC(O)Cn2nc(-c3ccc(I)cc3)c3c2CCN(C(=O)OC(C)(C)C)C3)CC1` (stereo not shown) [Example 192, 1-[2-Hydroxy-3-(4-o-tolyl-piperazin-1-yl)-propyl]-3-(4-iodo-phenyl)-1,4,6,7-tetrahydro-pyrazolo[4,3-c]pyridine-5-carboxylic acid tert-butyl ester]: the 50% inhibitory concentration (IC50) turned out to be 790 nM.
